Experimental data reported in PubChem BioAssay AID624417 (National Center for Advancing Translational Sciences (NCATS), 2012).
The whole screen tested about 410,000 compounds, of which about 6,400 (1.6%) were called active. The inconclusive results got no clear call from the source; some entries with a clear call stand among them for comparison. The call rests on the fitted dose curve; in most records, active means well fitted inhibition curve with a large enough effect; inconclusive means small, poorly fitted or top-dose-only effect; inactive means no such curve, though single readings can be large or run the other way. Potencies of inconclusive entries are left out as doubtful fits.
Further: nearly all actives have a fitted effect of over 55% in size.
On the % scale 0 is the no-effect control and ±100 the full control effect; potency means the concentration at half of the fitted maximal effect; tags describe the fitted curve by direction and shape.

These molecules were tested against Glucagon-like peptide 1 receptor (Homo sapiens) (UniProt P43220) (assay: qHTS of GLP-1 Receptor Inverse Agonists (Inhibition Mode)). Details: HEK293 GLP-1R CRE-luciferase, luminescence, 24 h, GLP-1R form is constitutively active; activity change, negative = inhibition: at 38.3 µM (top of the series) unless noted.
Chain of UniProt P43220 (P43220 whole entry, looked up): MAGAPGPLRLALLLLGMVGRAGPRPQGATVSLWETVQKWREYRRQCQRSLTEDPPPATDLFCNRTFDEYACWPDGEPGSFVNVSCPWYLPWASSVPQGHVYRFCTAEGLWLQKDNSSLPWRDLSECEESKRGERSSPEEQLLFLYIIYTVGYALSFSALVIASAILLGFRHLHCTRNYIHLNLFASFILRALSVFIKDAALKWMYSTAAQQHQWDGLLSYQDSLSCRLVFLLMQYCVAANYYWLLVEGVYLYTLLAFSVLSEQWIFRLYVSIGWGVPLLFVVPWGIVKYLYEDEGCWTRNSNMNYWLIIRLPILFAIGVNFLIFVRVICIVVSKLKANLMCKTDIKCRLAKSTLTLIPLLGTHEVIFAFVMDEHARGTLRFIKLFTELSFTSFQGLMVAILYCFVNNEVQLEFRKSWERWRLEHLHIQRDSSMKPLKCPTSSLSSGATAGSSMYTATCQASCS
How it was run: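 Readout was luciferase luminescence, measured 12 min after detection reagent at room temperature. Beforehand, GLP-1R reporter HEK293 cells had sat 12 h, then received compounds for 24 hr at 37 deg C.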
In the case of Cc1cc(C)cc(C(=O)N(NC(=O)Nc2ccc(Cl)cc2)C(C)(C)C)c1, the Potency is reported as inconclusive [inhibitor, partial curve, poor fit].
In the case of COCC(C)n1c(SCC(=O)NC(=O)NCc2ccccc2)nc2ccccc2c1=O (centres undefined), the Potency is reported as inconclusive [inhibitor, single point].
In the case of Nc1nonc1-n1nnc(C(=O)c2ccccc2)c1-c1ccccc1, the Potency is reported as inconclusive [inhibitor, partial curve, poor fit].
O=S(=O)(c1ccc(OCc2nc3ccccc3s2)c(Cl)c1)N1CCOCC1 was tested, and the Potency was “inactive”.
In the case of CC1CCN(C2=C(NS(=O)(=O)c3ccccc3)C(=O)c3ccccc3C2=O)CC1, the Potency is reported as inconclusive [inhibitor, single point].
With O=C(CNC(=O)c1ccccc1)OC(C(=O)O)c1ccc(F)cc1 (centres undefined) the Potency was “inactive”.
For CCc1ccc(/C=N\NC(=O)c2ccc(Br)o2)s1, the Potency was inconclusive [inhibitor, single point].
In the case of CCOc1cccc(CN(C)CC2CCCN(CCc3ccc(Cl)cc3)C2)c1O (centres undefined), the Potency is reported as inconclusive [inhibitor, partial curve, poor fit].
In the case of CCc1cccc(NC(=O)CN(C)S(=O)(=O)c2cccc3cccnc23)c1, the Potency is reported as inconclusive [inhibitor, partial curve, poor fit].
With CC1CC(C)CN(C(=O)CSCC(=O)Nc2nc(-c3cccs3)cs2)C1 (centres undefined) the Potency was inconclusive [inhibitor, partial curve, poor fit].
In the case of CC(=O)Nc1ccc(S(=O)(=O)NC2CC(=O)N(c3ccc4c(c3)OCCO4)C2)cc1 (centres undefined), the Potency is reported as “inactive”.
For O=c1c(Cl)c(N2CCOCC2)cnn1-c1nc2ccccc2[nH]1, the Potency was inconclusive [inhibitor, partial curve, poor fit].
CCN1CCN(CCC(=O)Nc2ccc(Br)c(C)c2)CC1 was tested, and the Potency was inconclusive [inhibitor, single point].
With Cc1ccc(S(=O)(=O)NCC(=O)NCC2CCCCC2)cc1C the Potency was “inactive”.
With FC(F)C(F)(F)C(F)(F)C(F)(F)c1cc(-c2ccccc2)n[nH]1 the Potency was inconclusive [inhibitor, full curve, poor fit].
With C[C@H](CO)N1C[C@H](C)[C@@H](CN(C)Cc2ccc(-c3ccccc3)cc2)Oc2c(NS(=O)(=O)c3ccc(F)cc3)cccc2C1=O the Potency was inconclusive [inhibitor, single point].
With CCCCC(=NCCc1c(C)[nH]c2ccccc12)C1=C(O)CC(c2ccccc2)CC1=O (centres undefined) the Potency was inconclusive [inhibitor, full curve, poor fit].
In the case of Cc1ccc(C(=O)OCC(=O)Nc2nc(-c3ccccc3)cs2)cc1NC(=O)c1ccco1, the Potency is reported as inconclusive [inhibitor, single point].
With CSCCCNC(=S)N1CCN(S(=O)(=O)c2cccc(C(F)(F)F)c2)CC1 the Potency was inconclusive [inhibitor, single point].
Cc1ccccc1Oc1cc(NC(=O)CCCn2nc(C)c([N+](=O)[O-])c2C)cc([N+](=O)[O-])c1 was tested, and the Potency was inconclusive [inhibitor, partial curve, poor fit].
Nc1[nH]nc2nc3ccccc3cc12 was tested, and the activity change, negative = inhibition was inactive: 29.6% [at 7.66 µM].
For Cc1cc(C)c2sc(N(CCCN(C)C)C(=O)COc3ccc(Cl)cc3)nc2c1, the Potency was inconclusive [inhibitor, partial curve, poor fit].
CSCC[C@H](NC(=O)N1CCn2c1nc1ccccc12)C(=O)NCc1ccc(C)cc1 was tested, and the Potency was inconclusive [inhibitor, full curve, poor fit].
With CC(C)(C)c1ccc(CC(=O)N2CCC2(C)C(=O)Nc2cccc3cccnc23)cc1 (centres undefined) the Potency was inconclusive [inhibitor, single point].
For CCOc1ccc(NS(=O)(=O)c2ccc3[nH]cc(C(=O)NCC4CCCO4)c(=O)c3c2)cc1 (centres undefined), the Potency was “inactive”.
For O=C(Nc1ccccc1N1CCOCC1)c1cc(Br)c(Br)s1, the activity change, negative = inhibition was inactive: -6.74% [at 0.307 µM].
With CSc1ncccc1C(=O)NCC12CC3CC(CC(C3)C1)C2 the Potency was inconclusive [inhibitor, partial curve].
In the case of Cn1ncc2c(Nc3ccc(Br)cc3)nc(Nc3ccc(Br)cc3)nc21, the Potency is reported as inconclusive [inhibitor, partial curve, poor fit].
Cc1[nH]c2ccc(C(=O)N3CCN(c4cccc(Cl)c4)CC3)cc2c1C was tested, and the Potency was inconclusive [inhibitor, partial curve, poor fit].
In the case of CCCN(CCC)CC(O)Cn1cc(/C=C/C(=O)c2ccc(OCC)cc2)c2ccccc21 (centres undefined), the Potency is reported as inconclusive [inhibitor, partial curve, poor fit].
For COc1ccc(OCC(=O)NCCS(=O)(=O)N2CCN(c3cccc(Cl)c3)CC2)cc1, the Potency was “inactive”.
With c1ccc(-c2csc(CN3CCCCC3)n2)cc1 the Potency was inconclusive [inhibitor, single point].
For CCN(CC)CCOC(c1ccccc1)c1ccc(C)cc1 (centres undefined), the Potency was inconclusive [inhibitor, single point].
With CN1CCN(CCCCOc2ccc(Br)cc2)CC1 the Potency was inconclusive [inhibitor, partial curve, poor fit].
In the case of C(=N/n1c2ccccc2c2ccccc21)/c1ccco1, the Potency is reported as inconclusive [inhibitor, partial curve, poor fit].
In the case of Cc1nn(Cc2ccccc2Cl)c2sc(C(=O)NCCCn3ccnc3)cc12, the Potency is reported as inconclusive [inhibitor, single point].
For O=C(O)CCCn1cc(NC(=O)c2sc3ccccc3c2Cl)cn1, the Potency was “inactive”.
O=[N+]([O-])c1ccc(S(=O)(=O)Nc2ccc(-c3ccccc3)cc2)cc1 was tested, and the Potency was inconclusive [inhibitor, single point].
In the case of NCCCC[C@H]1CNC(=S)N1CCCCC1CCCCC1, the Potency is reported as inconclusive [inhibitor, single point].
For COc1ccc(NC(=O)Cc2csc(COc3cccc(C)c3)n2)c(OC)c1, the Potency was inconclusive [inhibitor, single point].
COc1ccc(Nc2nc(N)nc(CSc3nc4cc(OC)ccc4s3)n2)cc1 was tested, and the Potency was inconclusive [inhibitor, single point].
With O=C(N/N=C/c1cc([N+](=O)[O-])ccc1O)c1cccc2cc[nH]c12 the Potency was inconclusive [inhibitor, full curve, poor fit].
For Cc1ccc(S(=O)(=O)CCC(=O)Nc2nnc(-c3cccs3)o2)cc1, the Potency was “inactive”.
For Cc1cc(-c2ccccc2)c2ccc(NC(=O)C(C)(C)C)nc2n1, the Potency was inconclusive [inhibitor, single point].
With Cc1onc(-c2ccc(Cl)cc2)c1-c1ccnc(SCC(=O)Nc2ccc(C(C)C)cc2)n1 the Potency was inconclusive [inhibitor, partial curve, poor fit].
COc1ccc(S(=O)(=O)NCCc2c[nH]c3ccc(Cl)cc23)cc1 was tested, and the Potency was inconclusive [inhibitor, single point].
For CNC(=S)N(Cc1ccc(OC)cc1)C1CC(=O)N(c2ccc(OC)cc2)C1=O (centres undefined), the Potency was inconclusive [inhibitor, single point].
With O=C(CSCc1cnn(-c2ccccc2)c1-n1cccc1)Nc1ccc(F)cc1F the Potency was inconclusive [inhibitor, single point].
With CCCc1cc(C(=O)Cc2ccc(C(=O)OCC)o2)c(O)cc1O the Potency was inconclusive [inhibitor, partial curve].
For NC(Cc1ccc(F)cc1)c1csc(Nc2nccc(C(F)(F)F)n2)n1 (centres undefined), the Potency was inconclusive [inhibitor, single point].
Cc1ccc(CNC(=O)c2c(-c3ccccc3Cl)noc2C)cc1 was tested, and the Potency was inconclusive [inhibitor, partial curve, poor fit].
Clc1cccc(OCCn2ccnc2)c1 was tested, and the Potency was “inactive”.
In the case of O=C1C2CCCCC2C(=O)N1c1ccc(S(=O)(=O)Nc2ncccn2)cc1 (centres undefined), the Potency is reported as “inactive”.
Cc1cc(/C=C2\NC(=O)NC2=O)c(C)n1-c1cccnc1 was tested, and the Potency was “inactive”.
With Cc1ccc(C)c(Cn2nc(C)n3c(cc4cc(C)ccc43)c2=O)c1 the Potency was “inactive”.
With CC(C)OC1(c2ccccc2)OC(=O)c2ccccc21 (centres undefined) the Potency was inconclusive [inhibitor, partial curve].
With Cc1ccc(S(=O)(=O)NCCC(=O)NCCCSc2ccccc2)cc1 the Potency was inconclusive [inhibitor, single point].
In the case of CCCCn1nc2cc(C(=O)NC3CCCc4ccccc43)ccc2c1OCC (centres undefined), the Potency is reported as inconclusive [inhibitor, partial curve].
CCCCNCC1C(Oc2ccc(Cl)cc2)C(=O)N1c1ccccc1C (centres undefined) was tested, and the Potency was active: 10 µM.
Cc1ccccc1S(=O)(=O)NC(=O)C1(C)CCN1C(=O)Cc1ccc(C(C)(C)C)cc1 (centres undefined) was tested, and the Potency was inconclusive [inhibitor, single point].
With Cc1ccc(CN(C(=O)COc2ccc(Br)cc2)c2ccccn2)o1 the Potency was inconclusive [inhibitor, single point].
In the case of Cc1cc(C)nc(N2CCN(S(=O)(=O)c3ccc(F)cc3)CC2)n1, the Potency is reported as inconclusive [inhibitor, single point].
For S=C(NCc1cccs1)Nc1cccc(Cl)c1Cl, the Potency was inconclusive [inhibitor, single point].
For Cc1cc(C)n(C(C)CC(=O)N2CCc3ccccc32)n1 (centres undefined), the Potency was inconclusive [inhibitor, partial curve, poor fit].
